The campaign covered roughly 310,000 compounds. About 2,200 (0.71%) showed an effect of 50% or more. The effect is printed as a negative number. Some of the results follow.

Sequence of human ether-à-go-go-related gene (hERG) potassium channel (Q12809 whole entry, looked up): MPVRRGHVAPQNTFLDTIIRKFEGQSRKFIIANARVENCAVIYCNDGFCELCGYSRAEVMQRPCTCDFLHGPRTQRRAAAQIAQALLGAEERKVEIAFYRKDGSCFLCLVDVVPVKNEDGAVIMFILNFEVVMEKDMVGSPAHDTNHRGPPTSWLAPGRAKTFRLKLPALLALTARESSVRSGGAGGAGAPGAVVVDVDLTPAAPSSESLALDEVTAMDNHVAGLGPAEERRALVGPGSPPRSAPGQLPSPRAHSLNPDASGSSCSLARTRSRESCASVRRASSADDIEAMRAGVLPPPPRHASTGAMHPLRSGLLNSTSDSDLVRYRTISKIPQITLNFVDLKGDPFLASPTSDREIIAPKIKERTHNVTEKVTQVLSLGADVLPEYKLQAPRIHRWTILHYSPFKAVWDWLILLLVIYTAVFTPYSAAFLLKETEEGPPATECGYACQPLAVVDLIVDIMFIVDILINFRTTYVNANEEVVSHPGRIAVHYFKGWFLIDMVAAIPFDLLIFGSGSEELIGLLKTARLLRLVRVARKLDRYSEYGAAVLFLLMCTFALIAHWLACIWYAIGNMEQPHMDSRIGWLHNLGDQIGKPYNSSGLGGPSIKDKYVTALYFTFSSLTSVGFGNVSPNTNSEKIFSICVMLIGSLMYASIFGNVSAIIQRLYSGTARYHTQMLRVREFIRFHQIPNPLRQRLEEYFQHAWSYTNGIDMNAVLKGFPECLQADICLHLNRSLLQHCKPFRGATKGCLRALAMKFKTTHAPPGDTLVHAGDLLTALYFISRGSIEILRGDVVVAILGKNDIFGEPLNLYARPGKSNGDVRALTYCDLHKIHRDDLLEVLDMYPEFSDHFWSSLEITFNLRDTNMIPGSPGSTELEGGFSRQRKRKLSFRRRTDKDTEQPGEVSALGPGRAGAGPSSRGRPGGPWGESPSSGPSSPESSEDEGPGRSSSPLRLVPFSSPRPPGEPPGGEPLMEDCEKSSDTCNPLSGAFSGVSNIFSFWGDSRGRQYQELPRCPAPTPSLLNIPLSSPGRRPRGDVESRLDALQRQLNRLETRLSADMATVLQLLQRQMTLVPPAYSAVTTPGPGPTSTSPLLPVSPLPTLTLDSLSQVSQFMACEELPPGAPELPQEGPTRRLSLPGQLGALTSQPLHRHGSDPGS

The assay addresses human ether-à-go-go-related gene (hERG) potassium channel (human, UniProt Q12809). The experiment in a line: primary screen, population patch clamp on CHO cells stably expressing hERG.
`Cc1ccc(C(=O)COC(=O)c2cnccn2)cc1[N+](=O)[O-]`: the “hERG current change (%, negative = inhibition) at 1uM” value is given as 4.16%. To `Cc1ccc(NC(=O)c2nc[nH]c2C(=O)N2CCN(c3ccccc3)CC2)cc1` belongs 8.95%; to `CCN(CC)c1ccc(C=C2C(=O)OC(C)(C(C)(C)C)OC2=O)cc1` (stereo not shown), 9.12%; to `CCn1c(=O)c(C(=O)NCc2ccc(F)cc2)c(O)c2ccccc21`, 14.3%. Take `COc1cc(NC(=O)c2ccc(Cl)cc2)c2ncccc2c1`: the “hERG current change (%, negative = inhibition) at 1uM” value turned out to be 13.9%. As to `CO/N=C/CC(=O)c1ccc(OC)cc1`, the “hERG current change (%, negative = inhibition) at 1uM” value amounted to 14.3%. Take `CC1(c2nnc(Cc3ccccc3)o2)CC(c2ccc([N+](=O)[O-])cc2)=NO1` (stereo not shown): the “hERG current change (%, negative = inhibition) at 1uM” value was -20.8%. The value for `CC(C)CC(=O)OCC(=O)Nc1ccccc1Sc1ccccc1` was 11.1%. To `Cc1ccccc1OCC(=O)OC(C)CN1CCN(C)CC1.Cl` (stereo not shown) belongs 13.2%; to `CCn1c(COc2ccccc2C)nnc1SCC(=O)Nc1cc(C)on1`, 6.02%; to `COc1ccc(-n2nc(C(N)=O)c(O)cc2=O)cc1`, 11.4%. The value for `CCCN1CCC(NCc2cn(C)nc2-c2ccc(Oc3ccccc3)cc2)CC1` was 18.7%.

As to `C=CCC(=O)N1CCCC(CCC(=O)NCc2ccccc2F)C1` (stereo not shown), the “hERG current change (%, negative = inhibition) at 1uM” value is listed as 14.4%.

On to `CC1(C)C(=O)N(OCc2ccccc2)C(C)(C)C(=O)N1OCc1ccccc1`, for which the “hERG current change (%, negative = inhibition) at 1uM” value is reported as 2.68%. For the molecule `COc1ccccc1C(=O)NNC(=O)C1CCN(C(=O)OC(C)(C)C)CC1`, the “hERG current change (%, negative = inhibition) at 1uM” value was found to be 9.25%. Take `CCOC(=O)C1=C(C)N(CCO)C(=O)NC1c1ccccc1` (stereo not shown): the “hERG current change (%, negative = inhibition) at 1uM” value is -1.43%.

With `CSc1nc2ccccc2n1Cc1cccc([N+](=O)[O-])c1`, the “hERG current change (%, negative = inhibition) at 1uM” value is -13%. For the molecule `COc1ccc2c(C)cc(SC3CCOC3=O)nc2c1` (stereo not shown), the “hERG current change (%, negative = inhibition) at 1uM” value amounted to 3.34%.

For `CCC(CC)C(=O)Nc1cccc(C(=O)N2CCCCCC2)c1`, the “hERG current change (%, negative = inhibition) at 1uM” value was 1.72%. In the case of `C=CCSC1=C(C#N)C(c2cccc(OC)c2)CC(=O)N1` (stereo not shown), the “hERG current change (%, negative = inhibition) at 1uM” value is recorded as 0.746%. The value for `Cc1cc(/C=C2\C(=N)N3N=C(C(C)C)SC3=NC2=O)c(C)n1Cc1ccccc1` was 12.4%. The value for `CSc1nnc2c3c4c(sc3c(=O)n(-c3ccccc3)n12)CC(C)(C)OC4` was 8.51%; that for `O=C(Nc1nccs1)c1ccc(-c2ccc(F)cc2)o1` was 10.4%; that for `COc1ccc2c(c1)c(CC(=O)OCC(N)=O)c(C)n2C(=O)c1ccc(Cl)cc1` was 6.99%.

Consider `COc1cc(-c2nnc(NC(=O)CS(=O)(=O)c3ccc(F)cc3)o2)cc(OC)c1OC`, for which the “hERG current change (%, negative = inhibition) at 1uM” value was determined as 17.8%.
